The entries are a selection whose mix differs from that of the whole data set. The list includes weakly bound sequences.
What follows are sequences tested against T1, GST-Nv-NF-kB (Cys allele) (UniProt E5G601) (assay: protein-binding microarray (PBM)). Conditions: PBM: ~300 nM protein, 6 mM HEPES pH 7.8, 80 mM KCl, 0.5 mM EDTA, 0.5 mM EGTA, 6% glycerol, 35 ng/ul poly-dIdC, 1% milk, 1 h, room temperature; high values mean tight binding; double strand, one strand shown.
T1 sequence: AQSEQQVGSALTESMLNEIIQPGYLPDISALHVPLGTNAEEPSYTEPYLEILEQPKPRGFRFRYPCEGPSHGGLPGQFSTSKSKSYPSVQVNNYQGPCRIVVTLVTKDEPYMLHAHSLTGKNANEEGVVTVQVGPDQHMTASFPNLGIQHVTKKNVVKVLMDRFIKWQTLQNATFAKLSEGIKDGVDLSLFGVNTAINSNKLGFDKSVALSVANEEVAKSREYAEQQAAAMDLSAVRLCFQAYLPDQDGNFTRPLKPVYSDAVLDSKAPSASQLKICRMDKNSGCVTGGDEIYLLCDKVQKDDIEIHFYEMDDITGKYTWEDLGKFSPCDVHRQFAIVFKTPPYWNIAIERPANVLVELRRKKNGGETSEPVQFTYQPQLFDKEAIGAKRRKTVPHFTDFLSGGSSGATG

| Sequence | binding signal [z-score] |
| --- | --- |
| CCGATTAACATCACCCCGTCCCCTGATGTTAATCGGGTCTTGATTCGCTTGACGCTGCTG | 3.83 |
| CCGATTAACATCAGATTTCTCCCTGATGTTAATCGGGTCTTGATTCGCTTGACGCTGCTG | 3.11 |
| CCGATTAACATCATATTTTCCCATGATGTTAATCGGGTCTTGATTCGCTTGACGCTGCTG | 4.42 |
| CCGATTAACATCAGGAATATCCCTGATGTTAATCGGGTCTTGATTCGCTTGACGCTGCTG | 3.66 |
| CCGATTAACATCAGGAAAGCACCTGATGTTAATCGGGTCTTGATTCGCTTGACGCTGCTG | 4.19 |
| CCGATTAACATCAAGCACCCCCTTGATGTTAATCGGGTCTTGATTCGCTTGACGCTGCTG | 3.21 |
| CCGATTAACATCAGATATTTCCCTGATGTTAATCGGGTCTTGATTCGCTTGACGCTGCTG | 5.95 |
| CCGATTAACATCACGGTGGGAAATGATGTTAATCGGGTCTTGATTCGCTTGACGCTGCTG | 2.39 |
| CCGATTAACATCAATTCCCACCCTGATGTTAATCGGGTCTTGATTCGCTTGACGCTGCTG | 2.6 |
| CCGATTAACATCAGGGACCTCCCTGATGTTAATCGGGTCTTGATTCGCTTGACGCTGCTG | 4.78 |
| CCGATTAACATCAATCTTTTCCCTGATGTTAATCGGGTCTTGATTCGCTTGACGCTGCTG | 4.39 |
| CCGATTAACATCAGGGCCCCCCCTGATGTTAATCGGGTCTTGATTCGCTTGACGCTGCTG | 4.21 |
| CCGATTAACATCAGGGGGAGAGATGATGTTAATCGGGTCTTGATTCGCTTGACGCTGCTG | 3.66 |
| CCGATTAACATCAGGGGATCCCATGATGTTAATCGGGTCTTGATTCGCTTGACGCTGCTG | 5.1 |
| CCGATTAACATCAAGACTCCCCCTGATGTTAATCGGGTCTTGATTCGCTTGACGCTGCTG | 5.25 |
| CCGATTAACATCAGGGAAAGGGATGATGTTAATCGGGTCTTGATTCGCTTGACGCTGCTG | 3.29 |
| CCGATTAACATCAGGGGGAATACTGATGTTAATCGGGTCTTGATTCGCTTGACGCTGCTG | 8.32 |
| CCGATTAACATCAATATAGTCCCTGATGTTAATCGGGTCTTGATTCGCTTGACGCTGCTG | 4.77 |
| CCGATTAACATCAGGAACCCCCATGATGTTAATCGGGTCTTGATTCGCTTGACGCTGCTG | 5 |
| CCGATTAACATCAGGGGATGCACTGATGTTAATCGGGTCTTGATTCGCTTGACGCTGCTG | 4.83 |

| Sequence | binding signal [z-score] |
| --- | --- |
| CCGATTAACATCACGGGCTTCCCTGATGTTAATCGGGTCTTGATTCGCTTGACGCTGCTG | 2 |
| CCGATTAACATCAGAAATTTACCTGATGTTAATCGGGTCTTGATTCGCTTGACGCTGCTG | 2.05 |
| CCGATTAACATCAAGTATTCCCATGATGTTAATCGGGTCTTGATTCGCTTGACGCTGCTG | 2.26 |
| CCGATTAACATCAGGCAACTCCCTGATGTTAATCGGGTCTTGATTCGCTTGACGCTGCTG | 2.44 |
| CCGATTAACATCACTTTTTTCCCTGATGTTAATCGGGTCTTGATTCGCTTGACGCTGCTG | 4.9 |
| CCGATTAACATCACGGAAATACCTGATGTTAATCGGGTCTTGATTCGCTTGACGCTGCTG | 0.416 |
| CCGATTAACATCAGAGTTTCCCATGATGTTAATCGGGTCTTGATTCGCTTGACGCTGCTG | 3.42 |
| CCGATTAACATCAGGAGGTTCCCTGATGTTAATCGGGTCTTGATTCGCTTGACGCTGCTG | 0.731 |
| CCGATTAACATCAGGAGAGTACCTGATGTTAATCGGGTCTTGATTCGCTTGACGCTGCTG | 2.32 |
| CCGATTAACATCAAAAGCCCCCATGATGTTAATCGGGTCTTGATTCGCTTGACGCTGCTG | 6.19 |
| CCGATTAACATCAGGCCTTCCCCTGATGTTAATCGGGTCTTGATTCGCTTGACGCTGCTG | 6.79 |
| CCGATTAACATCAAGGGGGAGATTGATGTTAATCGGGTCTTGATTCGCTTGACGCTGCTG | 6.09 |
| CCGATTAACATCAGGGGTCAGTATGATGTTAATCGGGTCTTGATTCGCTTGACGCTGCTG | 0.481 |
| CCGATTAACATCATGGGAAGGTTTGATGTTAATCGGGTCTTGATTCGCTTGACGCTGCTG | 1.55 |
| CCGATTAACATCAAGGGGGTTTATGATGTTAATCGGGTCTTGATTCGCTTGACGCTGCTG | 6.46 |
| CCGATTAACATCAGGACTTGCCCTGATGTTAATCGGGTCTTGATTCGCTTGACGCTGCTG | 1.11 |
| CCGATTAACATCAGGGGAGTGGATGATGTTAATCGGGTCTTGATTCGCTTGACGCTGCTG | 2.86 |
| CCGATTAACATCACCCTCGAGGGTGATGTTAATCGGGTCTTGATTCGCTTGACGCTGCTG | 0.756 |
| CCGATTAACATCAGACATTCCCATGATGTTAATCGGGTCTTGATTCGCTTGACGCTGCTG | 2.27 |
| CCGATTAACATCAAGTGGGAAAATGATGTTAATCGGGTCTTGATTCGCTTGACGCTGCTG | 4.11 |

The sequences below were run against T2, GST-Co-NF-kB (UniProt F1ARL5) (assay: protein-binding microarray (PBM)). Conditions: PBM: ~300 nM protein, 6 mM HEPES pH 7.8, 80 mM KCl, 0.5 mM EDTA, 0.5 mM EGTA, 6% glycerol, 35 ng/ul poly-dIdC, 1% milk, 1 h, room temperature; Ap Aiptasia and Nv Nematostella (sea anemones) / Co Capsaspora / Aq Amphimedon (sponge) / Dm Drosophila / Hu human; RHD is the Rel homology domain; high values mean tight binding; most listed sequences are background and not binding sites; double strand, one strand shown.
T2 sequence: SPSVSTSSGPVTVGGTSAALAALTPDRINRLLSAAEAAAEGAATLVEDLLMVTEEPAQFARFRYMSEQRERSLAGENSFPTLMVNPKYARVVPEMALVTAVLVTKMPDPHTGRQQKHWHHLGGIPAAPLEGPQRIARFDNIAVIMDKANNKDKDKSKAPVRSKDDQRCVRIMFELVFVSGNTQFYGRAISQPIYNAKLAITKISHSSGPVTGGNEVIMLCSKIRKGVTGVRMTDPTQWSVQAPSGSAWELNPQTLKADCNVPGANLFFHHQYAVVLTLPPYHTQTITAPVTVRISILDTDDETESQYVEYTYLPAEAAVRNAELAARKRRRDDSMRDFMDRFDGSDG

| Sequence | binding signal [z-score] |
| --- | --- |
| CCGATTAACATCACCCCGTCCCCTGATGTTAATCGGGTCTTGATTCGCTTGACGCTGCTG | 3.98 |
| CCGATTAACATCAGATTTCTCCCTGATGTTAATCGGGTCTTGATTCGCTTGACGCTGCTG | 2.92 |
| CCGATTAACATCATATTTTCCCATGATGTTAATCGGGTCTTGATTCGCTTGACGCTGCTG | 4.34 |
| CCGATTAACATCAGGAAAGCACCTGATGTTAATCGGGTCTTGATTCGCTTGACGCTGCTG | -0.611 |
| CCGATTAACATCAGATATTTCCCTGATGTTAATCGGGTCTTGATTCGCTTGACGCTGCTG | 5.03 |
| CCGATTAACATCACGGTGGGAAATGATGTTAATCGGGTCTTGATTCGCTTGACGCTGCTG | 2.77 |
| CCGATTAACATCAATTCCCACCCTGATGTTAATCGGGTCTTGATTCGCTTGACGCTGCTG | 3.21 |
| CCGATTAACATCAGGGACCTCCCTGATGTTAATCGGGTCTTGATTCGCTTGACGCTGCTG | 0.648 |
| CCGATTAACATCAGGGCCCCCCCTGATGTTAATCGGGTCTTGATTCGCTTGACGCTGCTG | 2.89 |
| CCGATTAACATCAGGGGGAGAGATGATGTTAATCGGGTCTTGATTCGCTTGACGCTGCTG | 5.69 |
| CCGATTAACATCAGGGGATCCCATGATGTTAATCGGGTCTTGATTCGCTTGACGCTGCTG | 2.81 |
| CCGATTAACATCAAGACTCCCCCTGATGTTAATCGGGTCTTGATTCGCTTGACGCTGCTG | 5.87 |
| CCGATTAACATCAGGGGGAATACTGATGTTAATCGGGTCTTGATTCGCTTGACGCTGCTG | 9.18 |
| CCGATTAACATCAGGAACCCCCATGATGTTAATCGGGTCTTGATTCGCTTGACGCTGCTG | 2.67 |
| CCGATTAACATCAGGGGATGCACTGATGTTAATCGGGTCTTGATTCGCTTGACGCTGCTG | 2.97 |
| CCGATTAACATCACGGGCTTCCCTGATGTTAATCGGGTCTTGATTCGCTTGACGCTGCTG | 0.816 |

| Sequence | binding signal [z-score] |
| --- | --- |
| CCGATTAACATCAGAAATTTACCTGATGTTAATCGGGTCTTGATTCGCTTGACGCTGCTG | 0.327 |
| CCGATTAACATCAGGCAACTCCCTGATGTTAATCGGGTCTTGATTCGCTTGACGCTGCTG | 1.09 |
| CCGATTAACATCACTTTTTTCCCTGATGTTAATCGGGTCTTGATTCGCTTGACGCTGCTG | 6.08 |
| CCGATTAACATCACGGAAATACCTGATGTTAATCGGGTCTTGATTCGCTTGACGCTGCTG | 0.0538 |
| CCGATTAACATCAGGAGGTTCCCTGATGTTAATCGGGTCTTGATTCGCTTGACGCTGCTG | 0.78 |
| CCGATTAACATCAGGAGAGTACCTGATGTTAATCGGGTCTTGATTCGCTTGACGCTGCTG | -0.466 |
| CCGATTAACATCAAAAGCCCCCATGATGTTAATCGGGTCTTGATTCGCTTGACGCTGCTG | 2.08 |
| CCGATTAACATCAGGCCTTCCCCTGATGTTAATCGGGTCTTGATTCGCTTGACGCTGCTG | 2.84 |
| CCGATTAACATCAAGGGGGAGATTGATGTTAATCGGGTCTTGATTCGCTTGACGCTGCTG | 7.21 |
| CCGATTAACATCAGGGGTCAGTATGATGTTAATCGGGTCTTGATTCGCTTGACGCTGCTG | 0.945 |
| CCGATTAACATCATGGGAAGGTTTGATGTTAATCGGGTCTTGATTCGCTTGACGCTGCTG | 2.28 |
| CCGATTAACATCAGGACTTGCCCTGATGTTAATCGGGTCTTGATTCGCTTGACGCTGCTG | -0.733 |
| CCGATTAACATCAGGGGAGTGGATGATGTTAATCGGGTCTTGATTCGCTTGACGCTGCTG | 1.84 |
| CCGATTAACATCACCCTCGAGGGTGATGTTAATCGGGTCTTGATTCGCTTGACGCTGCTG | 1.1 |
| CCGATTAACATCAGACATTCCCATGATGTTAATCGGGTCTTGATTCGCTTGACGCTGCTG | 1.37 |
| CCGATTAACATCAAGTGGGAAAATGATGTTAATCGGGTCTTGATTCGCTTGACGCTGCTG | 2.91 |
